From a collection of fitness landscapes (doi:10.1126/science.1257360)
This is one part of the list.

B1: PhoQ; a variant is named by its letters at X, in order, P23837 (parent)
chain: MKKLLRLFFPLSLRVRFLLATAAVVLVLSLAYGMVALIGYSVSFDKTTFRLLRGESNLFYTLAKWENNKLHVELPENIDKQSPTMTLIYDENGQLLWAQRDVPWLMKMIQPDWLKSNGFHEIEADVNDTSLLLSGDHSIQQQLQEVREDDDDAEMTHSVAVNVYPATSRMPKLTIVVVDTIPVELKSSYMVWSWFIYVLSANLLLVIPLLWVAAWWSLRPIEALAKEVRELEEHNRELLNPATTRELTSLVRNLNRLLKSERERYDKYRTTLTDLTHSLKTPLXXLQXXLRSLRSEKMSVSDAEPVMLEQISRISQQIGYYLHRASMRGGTLLSRELHPVAPLLDNLTSALNKVYQRKGVNISLDISPEISFVGEQNDFVEVMGNVLDNACKYCLEFVEISARQTDEHLYIVVEDDGPGIPLSKREVIFDRGQRVDTLRPGQGVGLAVAREITEQYEGKIVAGESMLGGARMEVIFGRQHSAPKDE

Variants of: B1
Assay: enrichment ratio after two sorts for PhoP signalling (ratio (wild type AVST 3.29)); higher = more functional
Conditions: with PhoP (E. coli)

Variant	enrichment ratio
QAMP	≤ 0.25
KDRI	≤ 0.25
RVSP	≤ 0.25
IIFQ	≤ 0.25
NWQI	≤ 0.25
PWHS	≤ 0.25
KIFL	≤ 0.25
TIFQ	≤ 0.25
MTPN	≤ 0.25
PDTS	≤ 0.25
YPAP	≤ 0.25
LLVL	≤ 0.25
MCFF	6.17
QKYS	≤ 0.25
LCTV	≤ 0.25
LPCP	≤ 0.25
DPPM	≤ 0.25
RYLG	≤ 0.25
KQWC	≤ 0.25
ILSK	≤ 0.25
LWPG	≤ 0.25
RMFR	≤ 0.25
PEFT	≤ 0.25
RHTA	≤ 0.25
YQSH	≤ 0.25

Variant	enrichment ratio
RSYM	≤ 0.25
FPRH	≤ 0.25
LDRC	≤ 0.25
AIGV	≤ 0.25
EDVE	≤ 0.25
QECL	≤ 0.25
ETCN	≤ 0.25
IHFY	≤ 0.25
DTGR	≤ 0.25
IQSC	≤ 0.25
QDSE	≤ 0.25
DAFN	≤ 0.25
ESMK	≤ 0.25
NGMM	≤ 0.25
HPKR	3.21
NSCT	≤ 0.25
FTIH	≤ 0.25
HKLE	≤ 0.25
RPTC	≤ 0.25
VCLQ	6.54
MVWD	≤ 0.25
QYAF	≤ 0.25
RMDD	≤ 0.25
HVPT	≤ 0.25
CTLP	≤ 0.25

Variant	enrichment ratio
PWEY	≤ 0.25
VFGF	≤ 0.25
NECV	≤ 0.25
TVMT	12.2
LPMM	≤ 0.25
IGCQ	≤ 0.25
SFMH	≤ 0.25
NNNH	≤ 0.25
LHFE	≤ 0.25
KMGI	≤ 0.25
IAMT	≤ 0.25
RYKM	≤ 0.25
QECS	10.1
IEVR	≤ 0.25
SRCD	4.09
TCHQ	23.4
AYFT	≤ 0.25
RVCV	≤ 0.25
ATPF	≤ 0.25
HTQM	≤ 0.25
YKPS	≤ 0.25
NTHH	≤ 0.25
HQNP	≤ 0.25
RWFI	≤ 0.25
YMKG	≤ 0.25

Variant	enrichment ratio
ALEI	≤ 0.25
KPDP	≤ 0.25
RGNW	≤ 0.25
ERNR	≤ 0.25
PFAF	≤ 0.25
AGNQ	≤ 0.25
SRHA	≤ 0.25
WHEP	≤ 0.25
VWMS	≤ 0.25
RKNP	≤ 0.25
DVKL	≤ 0.25
AKEN	≤ 0.25
RKQR	≤ 0.25
QLDH	≤ 0.25
PECC	≤ 0.25
LMYV	≤ 0.25
LYED	≤ 0.25
FFMA	≤ 0.25
PNDF	≤ 0.25
AVYR	≤ 0.25
MPPC	≤ 0.25
YKWW	≤ 0.25
YSGE	≤ 0.25
CSFT	≤ 0.25
QGYS	8.3

Variant	enrichment ratio
RLMD	≤ 0.25
GIVI	6.54
LMTS	0.708
MCRR	≤ 0.25
FYLK	≤ 0.25
NQRW	≤ 0.25
EATG	≤ 0.25
THAW	≤ 0.25
VIAR	≤ 0.25
GQLD	≤ 0.25
TDGR	≤ 0.25
ELLK	≤ 0.25
LTQV	≤ 0.25
SPFK	≤ 0.25
WFDV	≤ 0.25
YHEW	≤ 0.25
RCWF	≤ 0.25
DNEG	≤ 0.25
WDKS	≤ 0.25
YSGC	≤ 0.25
NYSD	≤ 0.25
EPIC	≤ 0.25
EHER	≤ 0.25
YQEY	≤ 0.25
QANG	≤ 0.25

Variant	enrichment ratio
TKLH	11.9
IPFQ	≤ 0.25
VWFA	≤ 0.25
LPRL	≤ 0.25
MIHA	≤ 0.25
FSIY	≤ 0.25
EFNC	≤ 0.25
SSVN	6.68
PHGQ	≤ 0.25
WFCP	≤ 0.25
WMTN	≤ 0.25
DCID	≤ 0.25
GGVG	≤ 0.25
KEVS	≤ 0.25
FAPE	≤ 0.25
MSMF	3.78
RSLL	≤ 0.25
MMYG	≤ 0.25
FWDV	≤ 0.25
THWG	0.774
LGFP	≤ 0.25
LPIE	≤ 0.25
PSDW	≤ 0.25
TEMD	1.58
LDCP	≤ 0.25

Variant	enrichment ratio
VEMY	≤ 0.25
LLSL	≤ 0.25
PIPH	≤ 0.25
MFTI	≤ 0.25
AEFV	1.65
STPF	≤ 0.25
YQSR	≤ 0.25
SNAM	13.5
KHFQ	≤ 0.25
EIKK	≤ 0.25
YTWI	≤ 0.25
PGAN	≤ 0.25
GAPC	≤ 0.25
YYQW	≤ 0.25
SIWS	≤ 0.25
RWYY	≤ 0.25
IDFL	≤ 0.25
YLPD	≤ 0.25
YRMC	≤ 0.25
TQSP	≤ 0.25
YQAF	≤ 0.25
ERAK	≤ 0.25
KLLS	≤ 0.25
HQGS	≤ 0.25
WTGV	≤ 0.25

Variant	enrichment ratio
DIRG	≤ 0.25
DLLT	≤ 0.25
GALT	2.47
MLTR	≤ 0.25
MNGC	≤ 0.25
SSCG	12.6
QTNY	17.5
FHFV	≤ 0.25
HHAD	≤ 0.25
EYIH	≤ 0.25
AESD	0.253
TDGD	≤ 0.25
MDMD	≤ 0.25
SGCK	8.85
VCQV	≤ 0.25
WFEH	≤ 0.25
AVHK	≤ 0.25
EAYP	≤ 0.25
WPQS	≤ 0.25
WKST	≤ 0.25
